Among all 39,000 compounds or so, about 220 (0.56%) showed activity. The list shows a part of the results.
system: Escherichia coli K-12 BW25113; assay: relative growth (OD600 normalised to plate interquartile mean) (fraction); higher = less growth inhibition, active = 0.2 or less; conditions: 50 µM; LB; incubation time: overnight (16-24 h)
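Also: static incubation at 37 °C against the wild-type strain, values averaged over two biological replicates.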

Structure (SMILES)	relative growth
CN(C)[C@@H]1C(=O)C(C(=O)NCN2CCCC2)=C(O)[C@@]2(O)C(O)=C3C(=O)c4c(O)cccc4[C@@](C)(O)[C@H]3C[C@@H]12	inactive: 0.516
C[C@H](CO)N1C[C@H](C)[C@H](CN(C)Cc2ccncc2)Oc2c(NS(=O)(=O)c3ccccc3)cccc2C1=O	inactive: 1
CC1=C(/C=C/C(C)=C/C=C/C(C)=C/C(=O)O)C(C)(C)CCC1	inactive: 0.987
CN1CC(O)C2=CC(=NNC(N)=O)C(=O)C=C21 (stereo not drawn)	inactive: 0.978
C[C@@H]1CCCCO[C@H](CN(C)C(=O)C2CCCCC2)[C@H](C)CN([C@@H](C)CO)C(=O)c2cc(NC(=O)NC3CCCCC3)ccc2O1	inactive: 1
C[C@H](CO)N1C[C@H](C)[C@H](CN(C)CC2CC2)Oc2ccc(NS(=O)(=O)c3ccccc3)cc2CC1=O	inactive: 0.983
O=C(O)COC(=O)Cc1ccccc1Nc1c(Cl)cccc1Cl	inactive: 1.09
Clc1cccc2ccncc12	inactive: 0.984
CO[C@H]1CN(C)C(=O)c2cc(NS(C)(=O)=O)ccc2OC[C@H](C)N(C(=O)C2CCCCC2)C[C@@H]1C	inactive: 0.995
COc1ccc(-c2cnc3c(c2)C(=O)N([C@H](C)CO)C[C@H](C)[C@H](CN(C)S(=O)(=O)c2ccc(OC)cc2)O3)cc1	inactive: 1.01
C[C@@H]1CCCCO[C@@H](CN(C)C(=O)NC2CCCCC2)[C@@H](C)CN([C@H](C)CO)C(=O)c2cc(NC(=O)CCC(F)(F)F)ccc2O1	inactive: 0.957
COc1ccc([Si](C)(C)[C@@H]2[C@@H](CCO)O[C@]3(C(=O)N(Cc4cccc(N5C(=O)COc6ccccc65)c4)c4ccccc43)[C@H]2C)cc1	inactive: 1.02
C[C@@H]1CCCCO[C@@H](CN(C)S(=O)(=O)c2ccc(Cl)cc2)[C@@H](C)CN([C@H](C)CO)C(=O)c2cc(NC(=O)Nc3ccc(C(F)(F)F)cc3)ccc2O1	inactive: 1
C[C@@H]1CCCCO[C@@H](CN(C)C(=O)CCC(F)(F)F)[C@H](C)CN([C@@H](C)CO)C(=O)c2cc(NS(=O)(=O)c3ccccc3)ccc2O1	inactive: 0.982
Cl.O=C1CN2Cc3c(ccc(Cl)c3Cl)N=C2N1	inactive: 0.918
C[C@@H]1CCCCO[C@H](CN(C)S(=O)(=O)c2ccc(F)cc2)[C@@H](C)CN([C@@H](C)CO)C(=O)c2cc(NS(=O)(=O)c3ccc(Cl)cc3)ccc2O1	inactive: 1.05
CC(C)NC(=O)N(C)C[C@H]1Oc2cc(C#Cc3ccc(F)cc3)ccc2S(=O)(=O)N([C@H](C)CO)C[C@H]1C	inactive: 0.913
CC(=O)OCC(=O)C12OC(C)(C)OC1CC1C3CC(F)C4=CC(=O)C=CC4(C)C3(F)C(O)CC12C (stereo not drawn)	inactive: 1.17
COc1ccc([C@@H](N)c2ccncc2)cc1	inactive: 1.01
Cc1noc(C)c1S(=O)(=O)Nc1ccc2c(c1)C(=O)N([C@@H](C)CO)C[C@H](C)[C@H](CN(C)S(=O)(=O)c1ccccc1)O2	inactive: 1.02
COc1ccc(S(=O)(=O)Nc2ccc3c(c2)CC(=O)N([C@@H](C)CO)C[C@@H](C)[C@@H](CN(C)Cc2ccc(Cl)c(Cl)c2)O3)cc1	inactive: 0.988

Structure (SMILES)	relative growth
O=C(Cn1cc(COc2ccc(-n3cccc3)cc2)nn1)NS(=O)(=O)c1cccc(OC(F)F)c1	inactive: 0.985
O=C1c2c(O)ccc(O)c2C(=O)c2c(NCCNCCO)ccc(NCCNCCO)c21	inactive: 1.11
C[C@@H]1CN([C@H](C)CO)C(=O)c2cc(NC(=O)NC3CCCCC3)ccc2O[C@@H](C)CCCCO[C@@H]1CN(C)C(=O)C1CCCCC1	inactive: 1.02
COc1ccc2c3c(n(c2c1)C)[C@H](CO)N(C[C@]13CCN(CC1)C(=O)c1ccncc1)C(=O)c1cnccn1	inactive: 0.981
C[C@H](CO)N1C[C@H](C)[C@@H](CN(C)C(=O)NC2CCCCC2)Oc2cc(-c3cccnc3)ccc2S1(=O)=O	inactive: 0.991
CCCNC(=O)N(C)C[C@H]1Oc2ncc(-c3ccc(C(=O)N(C)C)cc3)cc2C(=O)N([C@H](C)CO)C[C@H]1C	inactive: 0.994
Cc1ccc(S(=O)(=O)Nc2ccc3c(c2)C(=O)N([C@H](C)CO)C[C@H](C)[C@@H](CN(C)Cc2ccc4c(c2)OCO4)OCCCC[C@@H](C)O3)cc1	inactive: 0.936
C[C@@H]1CCCCO[C@H](CN(C)S(=O)(=O)c2cn(C)cn2)[C@H](C)CN([C@@H](C)CO)C(=O)c2cc(NS(=O)(=O)c3ccc(F)cc3)ccc2O1	inactive: 0.987
CC(C)NC(=O)N(C)C[C@H]1Oc2ccc(NC(=O)Cn3cnnn3)cc2C(=O)N([C@H](C)CO)C[C@H]1C	inactive: 1
C[C@@H]1CN([C@H](C)CO)S(=O)(=O)c2ccc(C#Cc3ccncc3)cc2O[C@H]1CN(C)C(=O)C1CCOCC1	inactive: 0.992
COc1ccc(CN(C)C[C@H]2OCCCC[C@@H](C)Oc3ccc(NC(=O)NC(C)C)cc3C(=O)N([C@H](C)CO)C[C@@H]2C)cc1	inactive: 0.987
COc1ccc(NC(=O)N(C)C[C@@H]2Oc3c(NC(=O)C4CCOCC4)cccc3C(=O)N([C@H](C)CO)C[C@H]2C)cc1	inactive: 1
Cc1noc(C)c1S(=O)(=O)N(C)C[C@@H]1Oc2ccc(NS(=O)(=O)c3cccs3)cc2CC(=O)N([C@H](C)CO)C[C@@H]1C	inactive: 1
C[C@H](CO)N1C[C@H](C)[C@H](CN(C)S(C)(=O)=O)Oc2ccc(NC(=O)Nc3ccc4c(c3)OCO4)cc2C1=O	inactive: 1
C[C@@H]1CN([C@H](C)CO)C(=O)CCCn2cc(nn2)CO[C@H]1CN(C)S(=O)(=O)c1cccc(C#N)c1	inactive: 0.949
CC(C)NC(=O)N[C@H]1C=C[C@@H](CC(=O)NCCN2CCCC2)O[C@H]1CO	inactive: 0.983
Cc1noc(C)c1NC(=O)N(C)C[C@@H]1Oc2ncc(C#Cc3ccccc3)cc2C(=O)N([C@H](C)CO)C[C@@H]1C	inactive: 1.03
COC(=O)c1c2oc(c1C(=O)OC)C(=O)N[C@H](Cc1ccccc1)Cn1cc(nn1)[C@H](Cc1ccccc1)NC(=O)N[C@H](CO)CC2	inactive: 0.948
COc1ccc(S(=O)(=O)N(C)C[C@H]2Oc3c(NC(=O)C4CC4)cccc3C(=O)N([C@@H](C)CO)C[C@H]2C)cc1	inactive: 1
Cn1nc2c(c1N)CCC2	inactive: 0.941
C[C@@H]1CCCCO[C@@H](CN(C)CC2CCCCC2)[C@@H](C)CN([C@H](C)CO)C(=O)c2cc(NS(=O)(=O)c3cccs3)ccc2O1	inactive: 0.977

Structure (SMILES)	relative growth
C[C@@H]1CN([C@H](C)CO)C(=O)Cc2cc(NC(=O)CCC(F)(F)F)ccc2O[C@@H]1CN(C)Cc1ccc(C(F)(F)F)cc1	inactive: 1
O=C(O)c1ccccc1-c1ccco1	inactive: 0.975
C[C@H]1CCCCO[C@@H](CN(C)C(=O)C2CCCCC2)[C@@H](C)CN([C@@H](C)CO)C(=O)c2cc(NC(=O)c3ccccc3)ccc2O1	inactive: 0.992
COc1ccc(S(=O)(=O)N(C)C[C@H]2Oc3c(NS(=O)(=O)c4ccc(C)cc4)cccc3C(=O)N([C@@H](C)CO)C[C@@H]2C)cc1	inactive: 1
C[C@@H]1CCCCO[C@@H](CN(C)C(=O)C2CCCCC2)[C@H](C)CN([C@@H](C)CO)C(=O)c2cc(NC(=O)CCC(F)(F)F)ccc2O1	inactive: 0.988
C[C@@H]1CCCCO[C@@H](CN(C)S(=O)(=O)c2ccc(F)cc2)[C@@H](C)CN([C@@H](C)CO)C(=O)c2cc(NC(=O)Cc3ccccc3)ccc2O1	inactive: 1.03
C[C@H]1CNC(=CC(=O)c2ccccc2)C(=O)N1	inactive: 1.02
Cc1nccn1CCC(=O)O	inactive: 0.988
COc1ccccc1CNC(=O)C[C@H]1CC[C@H]2[C@@H](COc3ccc(NC(=O)c4ccno4)cc3C(=O)N2C)O1	inactive: 0.989
CC(CN(C)C)CN1c2ccccc2Sc2ccccc21.O=C(O)C(O)C(O)C(=O)O (stereo not drawn)	inactive: 0.971
Cc1ccc(F)cc1NC(=O)[C@@H](C)N	inactive: 1
C[C@@H]1CN([C@H](C)CO)C(=O)c2cccc(NC(=O)c3ccc(-c4nccs4)cc3)c2O[C@H]1CN(C)Cc1ccc(-c2ccccc2)cc1	inactive: 1.02
COc1ccc2c3c([nH]c2c1)[C@@H](CO)N(Cc1ccc(cc1)Cl)C[C@]13CCN(CC1)Cc1nccs1	inactive: 0.999
CCN(CC)CCNc1ccc(COc2ccccc2/C=C(C)/C=C/C(=O)NO)c2sc3ccccc3c(=O)c12	inactive: 1.02
C[C@@H]1CN([C@@H](C)CO)C(=O)c2cc(NC(=O)Nc3cccc4ccccc34)ccc2O[C@@H]1CN(C)Cc1ccc(Cl)c(Cl)c1	inactive: 1.03
C[C@H]1CN([C@@H](C)CO)C(=O)c2cc(NC(=O)Nc3cccc4ccccc34)ccc2O[C@H]1CN(C)C(=O)Nc1ccccc1	inactive: 0.91
Cn1cnc(S(=O)(=O)N2C[C@@H](O)COC[C@H]3O[C@@H](CC(=O)NCc4cccc(F)c4)CC[C@@H]32)c1	inactive: 0.998
CC(C)CS(=O)(=O)C1CN(S(C)(=O)=O)C1	inactive: 0.998
COc1ccc(NC(=O)Nc2ccc3c(c2)C(=O)N([C@@H](C)CO)C[C@@H](C)[C@@H](CN(C)Cc2ccc(Oc4ccccc4)cc2)O3)cc1	inactive: 0.994
C[C@@H]1CN([C@H](C)CO)C(=O)c2cc(NC(=O)C3CCCCC3)ccc2O[C@@H](C)CCCCO[C@@H]1CN(C)S(=O)(=O)c1ccccc1	inactive: 1.02
OC1(c2ccc(Cl)c(C(F)(F)F)c2)CCN(CCCC(c2ccc(F)cc2)c2ccc(F)cc2)CC1	inactive: 0.913

From the supplement of paper PMC9446081
